Results from PMC4336329 (PLoS ONE, 2015).
In all, about 310,000 compounds went through this assay and about 14,000 (4.5%) showed an effect of 50% or more. Effects have a minus sign here. The list shows a part of the results.

Target: human ether-à-go-go-related gene (hERG) potassium channel (human, UniProt Q12809)
Test: primary screen, population patch clamp on CHO cells stably expressing hERG
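Note: peak tail current of the secondary pulse compared with the same well before compound.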

Sequence of human ether-à-go-go-related gene (hERG) potassium channel (Q12809 whole entry, looked up): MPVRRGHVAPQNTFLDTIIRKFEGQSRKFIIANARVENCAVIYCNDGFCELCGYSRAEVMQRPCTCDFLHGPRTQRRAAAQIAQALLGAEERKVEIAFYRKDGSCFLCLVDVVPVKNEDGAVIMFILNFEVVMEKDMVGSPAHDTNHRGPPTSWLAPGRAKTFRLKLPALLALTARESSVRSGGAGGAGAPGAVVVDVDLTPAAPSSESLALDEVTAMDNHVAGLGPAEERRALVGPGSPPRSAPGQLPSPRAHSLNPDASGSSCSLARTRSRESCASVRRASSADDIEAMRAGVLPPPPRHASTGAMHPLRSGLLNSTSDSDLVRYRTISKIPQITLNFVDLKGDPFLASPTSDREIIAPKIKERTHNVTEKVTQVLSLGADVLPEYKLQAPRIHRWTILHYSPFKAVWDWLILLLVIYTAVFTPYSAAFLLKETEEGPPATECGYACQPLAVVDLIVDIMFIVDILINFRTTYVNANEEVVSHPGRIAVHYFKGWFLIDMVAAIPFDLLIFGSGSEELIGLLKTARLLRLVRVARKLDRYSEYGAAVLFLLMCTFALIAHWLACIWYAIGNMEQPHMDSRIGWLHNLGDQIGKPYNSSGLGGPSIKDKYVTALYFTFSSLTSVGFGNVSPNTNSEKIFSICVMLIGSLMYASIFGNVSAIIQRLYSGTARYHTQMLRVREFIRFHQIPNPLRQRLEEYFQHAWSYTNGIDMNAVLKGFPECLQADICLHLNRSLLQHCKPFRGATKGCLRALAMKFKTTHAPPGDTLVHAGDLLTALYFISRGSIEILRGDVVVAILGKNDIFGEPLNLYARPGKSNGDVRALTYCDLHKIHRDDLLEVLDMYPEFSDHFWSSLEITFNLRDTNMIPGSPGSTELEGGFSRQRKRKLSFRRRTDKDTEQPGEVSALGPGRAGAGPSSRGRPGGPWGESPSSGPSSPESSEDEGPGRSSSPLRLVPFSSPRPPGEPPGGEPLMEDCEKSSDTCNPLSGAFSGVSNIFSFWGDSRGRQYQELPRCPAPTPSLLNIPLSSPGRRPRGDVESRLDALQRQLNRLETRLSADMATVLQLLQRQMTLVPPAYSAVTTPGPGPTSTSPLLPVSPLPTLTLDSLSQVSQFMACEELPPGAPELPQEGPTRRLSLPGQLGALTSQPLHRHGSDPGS

Row | SMILES | hERG current change (%, negative = inhibition) at 10uM [%]
1 | CCOC(=O)C1CCN(CCC(=O)Nc2ccccc2Cl)CC1.Cl | -19.3
2 | CN1CCN(CCCNC(=O)Cn2nc(-c3ccccc3)ccc2=O)CC1 | 14.1
3 | O=S(=O)(c1ccc(Br)cc1)N1CCCN(Cc2ccccc2F)CC1 | -21.4
4 | CCc1cc(=O)oc2cc(OCC(=O)N(CC)CC)c(Cl)cc12 | 8.27
5 | C[C@@H](C(=O)Nc1nc2ccc(F)cc2s1)N1C(=O)C2CC=CCC2C1=O (stereo partly shown) | -13.9
6 | Cc1cc(NCCCn2ccnc2)n2ncc(-c3ccc(Cl)cc3)c2n1 | -68
7 | COc1cc(C(=O)O)cc(OC)c1OCc1cc(C(=O)O)oc1C | 10.2
8 | CCCCn1c(N)c(N(Cc2ccccc2OC)C(=O)COc2ccccc2C#N)c(=O)[nH]c1=O | 6.53
9 | O=S(=O)(c1ccc2nnn(O)c2c1)N1CCCCC1 | 3.44
10 | CC(=O)N(CN1C(=O)c2ccccc2C1=O)c1cccc(C)c1 | 4.43
11 | Cc1nc2c(-c3ccc(F)cc3)c(C)nn2c(C)c1CCC(=O)N1CCC(Cc2ccccc2)CC1 | -21.2
12 | O=S(=O)(c1ccccc1F)N1CCc2ccccc2C1 | 14.5
13 | O=C(/C=N/NC(=O)c1ccccc1Br)c1ccccc1 | 5.03
14 | COc1ccc(NC(=O)c2ccc(-c3nn(C)c(=O)c4ccccc34)cc2)cc1 | -0.298
15 | COc1ccc(NC(=O)CS(=O)CC(=O)Nc2ccc(NC(C)=O)cc2)cc1 (stereo not shown) | 0.473
16 | CC(=O)N1CCC(N2CCN(c3ccccc3F)CC2)CC1 | 0.444
17 | Cc1ccc(-n2c(SCC(=O)NCc3ccco3)nc3sc(C)c(C)c3c2=O)cc1 | 5.77
18 | CCc1ccc(/C=N/n2c(C)cc(C)c(C#N)c2=O)cc1 | 11.8
19 | COC(=O)c1cc(NC(=O)CN(C)Cc2ccccc2)cc(C(=O)OC)c1 | 5.95
20 | CC1CC(C)CN(C(=O)CNC(=O)Cn2ccc3ccccc3c2=O)C1 (stereo not shown) | 0.125
21 | O=C(Nc1ccc(Nc2ccccc2)cc1)C(Cl)Cl | -24.1
22 | CC(C)COc1ccc(C(=O)OCCN2CCOCC2)c(O)c1.Cl | -25.2
23 | COCCCNC(=O)c1cc(C)nn1-c1ccccc1 | 7.55

Row | SMILES | hERG current change (%, negative = inhibition) at 10uM [%]
24 | O=S(=O)(NC1CCN(Cc2ccccc2)CC1)c1cccc(S(=O)(=O)N2CCOCC2)c1 | -43.4
25 | COc1ccc(CCNC(=O)COc2cccc3c2OC(C)(C)C3)cc1OC | 1.83
26 | COC(=O)Oc1cncc(C(=O)O)c1 | 15.2
27 | COc1ccc2c(c1)CCc1sc(NC(=O)c3ccco3)nc1-2 | 5.53
28 | O=C(CSc1nnc(CCc2ccccc2)n1-c1ccc(Cl)cc1)NCc1ccccc1 | -18.4
29 | C=CCNC(=O)c1ccccc1CCc1ccccc1 | 4.52
30 | O=C(CSc1nnc(Cc2ccccc2)o1)N1CCCc2ccccc21 | -3.73
31 | CC(C)COc1ccc(C(=O)Nc2ncn[nH]2)cc1 | 16
32 | C=C(C(=O)c1ccccc1)C(CC(=O)c1ccccc1)c1ccccc1 (stereo not shown) | 12.6
33 | COc1ccc(S(=O)(=O)NCc2ccc(C(=O)NCCCN3CCCC(C)C3)cc2)cc1 (stereo not shown) | -2.65
34 | O=C1Cc2ccccc2C(=O)N1c1cccc(Cl)c1 | 16.1
35 | CCCCOc1ccc(C(=O)NCCc2cccs2)cc1 | 3.76
36 | O=C(CSc1ccccc1F)OCC(=O)N1CCN(C(=O)c2ccco2)CC1 | -27.2
37 | COc1cccc(/C=C/C(=O)OCC(=O)c2c(N)n(C)c(=O)n(C)c2=O)c1 | 18.7
38 | CC(C(=O)O)N1C(=O)CSc2ncccc21 (stereo not shown) | 6.44
39 | CC(C)CCCC(C)NS(=O)(=O)Cc1ccccc1 (stereo not shown) | -9.59
40 | CCOc1ccc(C(=O)NC2=NCCS2)cc1 | -4.04
41 | COc1ccc(C2C(C(C)=O)=C(C)Nc3ncnn32)cc1OC (stereo not shown) | -2.53
42 | Nc1ccc2nc(SCC(=O)N3CCOCC3)sc2c1 | 17
43 | Cc1ccc(/C=C(\NC(=O)c2ccccc2)C(=O)NCCN2CCOCC2)o1 | -3.91
44 | COC(=O)c1sc(OC)cc1OCc1ccc(C)cc1 | 4.43
45 | O=C(CNS(=O)(=O)c1ccc(F)c(Cl)c1)N1CCCC1 | 0.688
46 | COc1ccc(C(=O)NNC(=O)c2ccncc2)cc1 | -8.32

Row | SMILES | hERG current change (%, negative = inhibition) at 10uM [%]
47 | CCCNC(=O)CC(NS(=O)(=O)c1ccc(OC)cc1)c1ccco1 (stereo not shown) | 6.28
48 | O=C(NCCc1ccccc1)C1CCN(S(=O)(=O)N2CCC3(CC2)OCCO3)CC1 | -0.566
49 | O=C(CCNS(=O)(=O)c1ccccc1)N1CCN(c2ccccc2)CC1 | -14.9
50 | Cc1ccc(NC2CCCN(C(=O)CCn3nccc3C)C2)cc1C (stereo not shown) | -1.08
51 | COc1cccc(NC(=O)c2cc([N+](=O)[O-])ccc2NCc2cccnc2)c1 | -44
52 | CCN(CC)CCn1cnc2c1c(=O)[nH]c(=O)n2Cc1ccccc1.Cl | -4.74
53 | O=S(=O)(c1ccc(NC(=S)NC2CC2)cc1)N1CCOCC1 | 21
54 | Cc1[nH]c2ccc(C(=O)N3CCN(c4cccc(Cl)c4)CC3)cc2c1C | 11.8
55 | O=[N+]([O-])c1ccc(S(=O)(=O)Nc2ccncc2)cc1 | 6.09
56 | COc1ccc(CCNC(=O)c2sc3nc4n(c(=O)c3c2C)CCC4)cc1 | -7.25
57 | Cn1c(C(=O)NCCCN2CCCCC2)cc2sccc21 | -49
58 | CCCn1c(=O)[nH]c(=O)c2[nH]cnc21 | 20.1
59 | S=C(Nc1ccccc1)Nc1ccc(OCc2ccc(Cl)cc2Cl)cc1 | 12.6
60 | COC(=O)c1ccc(-n2c(C)cc(C(=O)CCl)c2C)cc1 | -2.79
61 | O=S(=O)(/C=C/c1ccccc1)Nc1cccc(S(=O)(=O)NC2=NCCC2)c1 | 20.4
62 | Cc1ccc(OCC(=O)Nc2cccc(-c3nnc(-c4ccccc4)o3)c2)cc1 | 14.5
63 | CCC(=O)Nc1nnc(S(=O)(=O)N(C)Cc2ccco2)s1 | 14.4
64 | CCOC(=O)c1c(NC(=O)c2ccn(CC)n2)sc2c1CCCC2 | -4.2
65 | CN1C=CC=C/C1=C1/SC(=S)N(Cc2ccccc2)C1=O | -15.7
66 | COc1ccc(NC(=O)CSC2=NCCN2)cc1.Cl | -7.1
67 | O=C(Cc1ccccc1)Nc1ccccc1N1CCN(c2ccccc2)CC1 | 11.9
68 | CCCCCCCn1ccc(O)c(CC(=O)OC)c1=O | -13.5
69 | COC(=O)c1ccc(CON2C(=O)c3ccccc3C2=O)cc1 | 2.54

Row | SMILES | hERG current change (%, negative = inhibition) at 10uM [%]
70 | CC1CCN(C(=O)CC(NC(N)=O)c2ccccc2Cl)CC1 (stereo not shown) | 17.5
71 | O=C(Nc1nnc2n1CCS2)c1ccc(Br)o1 | 18.9
72 | O=C1CC(Nc2ccccc2)C(=O)N1CCc1ccccc1 (stereo not shown) | 15.9
73 | CC(=O)N[C@@H](Cc1c[nH]c2ccccc12)C(=O)NC1CCCc2ccccc21 (stereo partly shown) | 21
74 | Br.COC(=O)CN1C2=NCCCN2c2ccccc21 | -11.8
75 | O=C(CCCC(=O)N(c1cccc(F)c1)C(C(=O)NC1CCCC1)c1ccc(O)cc1)Nc1ccccn1 (stereo not shown) | 8.76
76 | COc1cccc(C(=O)COc2ccc3c(C)c(Cc4ccccc4)c(=O)oc3c2C)c1 | -15.2
77 | COc1ccc(/C=C/C(=O)OC(C)C(=O)c2ccccc2)cc1OC (stereo not shown) | -10.5
78 | COc1ccc(C(=O)Nc2ccc(S(=O)(=O)N3CCOCC3)cc2)cc1OC | 2.58
79 | COC(=O)Cc1c(C(=O)OC)nnn1-c1ccc(OC)cc1 | 13.8
80 | COc1ccccc1NS(=O)(=O)c1ccc(OC)c([N+](=O)[O-])c1 | 0.00128
81 | Cc1nn(C)cc1NC(=O)c1cc2nc(-c3ccco3)cc(C(F)(F)F)n2n1 | 4.66
82 | O=C(NCc1cccnc1)C1CC(c2ccccc2Cl)=NO1 (stereo not shown) | 2.13
83 | CCC(C)[C@H](NC(=O)NCCC1=CCCCC1)C(=O)O (stereo partly shown) | -7.02
84 | Cc1cc(OCC(O)CN2CCOCC2)cc(C)c1Cl.Cl (stereo not shown) | 14.4
85 | CCC(C)C(NC(=O)C1CCC(C)CC1)C(=O)Nc1cc(OC)ccc1OC (stereo not shown) | -26.4
86 | COc1ccc(NS(=O)(=O)c2ccc3oc(SC4CCOC4=O)nc3c2)cc1 (stereo not shown) | -23.8
87 | O=C(NC(Cc1ccccc1)C(=O)O)/C(=C\c1ccc(Cl)cc1)NC(=O)c1ccco1 (stereo not shown) | 2.34
88 | COc1ccc(S(=O)(=O)N2CCCCC2)cc1NC(=O)Cc1ccsc1 | 7.12
89 | CC(C)C1(C)N=C(c2ncccc2C(=O)[O-])NC1=O.[Na+] (stereo not shown) | 8.96
90 | CCN(CC)C(=O)CN1CCN(Cc2ccc3c(c2)OCO3)CC1.O=C(O)C(=O)O | 17.9
91 | COc1cccc(N2CCN(c3ccc4nnc(CCC(=O)Nc5cc(C)ccn5)n4n3)CC2)c1 | -11.6
